Results as given in PubChem BioAssay AID1458 (National Center for Advancing Translational Sciences (NCATS), 2008).
The campaign covered roughly 210,000 compounds. About 5,900 (2.8%) were called active. The shares of active, inactive and inconclusive entries below differ from those in the screen. Calls come from the whole dose curve; as a rule, active = well fitted activation curve with a large enough effect; inconclusive = small, poorly fitted or top-dose-only effect; inactive = no such curve, though single readings can be large or run the other way. Potencies of inconclusive entries are doubtful fits and often do not repeat.

experiment: qHTS Assay for Enhancers of SMN2 Splice Variant Expression; conditions: HEK293 SMN2-luciferase splicing reporter, luminescence, 30-36 h; series mostly up to 46.1 µM; note: nearly all actives have a fitted effect of over 55% in size
Method in brief: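 qHTS luciferase splicing reporter: luminescence rises when SMN2 exon 7 is included in transfected HEK293 cells. Compound exposure lasted 30-36 h at 37C, with 4.5 mM final sodium butyrate as control, followed by a ONE-Glo read.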
Potency is the fitted concentration of half-maximal effect; tags give direction and shape of the fitted curve.

| Structure (SMILES) | Potency |
| --- | --- |
| Fc1ccccc1CCNc1nnnn1-c1ccccc1 | inconclusive: 0.501 µM [activator, full curve, poor fit] |
| Cc1ccc(S(=O)(=O)N2CCSC2C(=O)O)cc1 (stereo not drawn) | inconclusive: 35.5 µM [activator, single point] |
| Cc1ccsc1C1NC(=O)c2ccccc2N1 (stereo not drawn) | inconclusive: 12.6 µM [activator, partial curve, poor fit] |
| C=CCN1C(=O)/C(=C\c2ccc(Cl)cc2)N=C1SCC(=O)NC1CCCCC1 | inactive |
| Cc1nc2ccccc2nc(=O)c1NNc1ccccc1 | active: 11.2 µM |
| Oc1ccc(-c2csc(-c3c[nH]c4ccccc34)n2)c(O)c1 | inconclusive: 25.1 µM [activator, single point] |
| Cc1cccc2c1N(Cc1ccccc1OCCC(C)C)C(=O)C2=O | inconclusive: 14.1 µM [activator, single point] |
| CCCCOC(=O)Nc1ccc(C(N)=O)cc1 | inconclusive: 14.1 µM [activator, single point] |
| O=C(Nc1cccc2nsnc12)c1ccc(F)cc1 | inconclusive: 12.6 µM [activator, partial curve, poor fit] |
| Cc1cc(=O)oc2cc(NC(=O)C3COc4ccccc4O3)ccc12 (stereo not drawn) | inconclusive: 0.158 µM [activator, full curve, poor fit] |
| CCc1ccc(NC(=O)Cn2c(=O)n(CCC(C)C)c(=O)c3cccnc32)cc1 | inactive |
| CC(=O)c1ccc(NC(=O)CSc2nc(N)c3cc4c(nc3n2)CCCC4)cc1 | active: 25.1 µM |
| COc1ccc(/C(C)=N/Nc2ccc(C(=O)O)cc2)cc1OC | inconclusive: 2.82 µM [activator, partial curve] |
| Cc1ccc2oc(-c3ccc(C)c(NC(=O)C(C)(C)Oc4ccc(Cl)cc4)c3)nc2c1 | inconclusive: 35.5 µM [activator, single point] |
| O=[N+]([O-])c1nn(-c2ccc3c(c2)OCCO3)n(O)c1=Nc1ccccc1 | inactive |
| Cc1csc(NC(=O)CCSCCc2ccccn2)n1 | inactive |
| Cc1sc(NC(=O)CN2CCN(c3ccccn3)CC2)c(C#N)c1C | inactive |
| Cn1c(=O)c2c(nc(-n3ccnc3)n2Cc2ccc([N+](=O)[O-])cc2)n(C)c1=O | inconclusive: 31.6 µM [activator, single point] |
| Cc1ccc(NC(=O)C(=O)Nc2ccccn2)cc1 | active: 1.58 µM |
| Cc1cc2c3c(c1)C1(C(=O)N3C(C)(C)CC2C)C(C#N)=C(N)Oc2n[nH]c(C)c21 (stereo not drawn) | inconclusive: 1.12 µM [activator, full curve, poor fit] |
| CCCCNc1cc(F)nc(N)n1 | inactive |
| O=C(Cn1nnc(-c2ccccc2)n1)c1ccccc1 | inactive |
| Cc1ccc(-c2ccc(SCC(=O)c3ccccc3)nn2)cc1 | active: 6.31 µM |
| CC1=C(C(=O)c2ccccc2)C(c2ccc(N3CCOCC3)cc2)NC(=O)N1 (stereo not drawn) | inactive |
| Cc1cc2ncn(C(=O)c3c(-c4ccccc4)noc3C)c2cc1C | inconclusive: 0.224 µM [activator, full curve, poor fit] |

| Structure (SMILES) | Potency |
| --- | --- |
| CC12CCC(C(=O)NCc3cccnc3)(OC1=O)C2(C)C (stereo not drawn) | inconclusive: 0.282 µM [activator, partial curve, poor fit] |
| CC(C)COc1ccc(/C=C2/Sc3ccccc3C2=O)cc1 | inconclusive: 10 µM [activator, partial curve, poor fit] |
| Brc1ccc(-c2csc(-c3c[nH]c4ccccc34)n2)cc1 | inconclusive: 35.5 µM [activator, single point] |
| CC(=O)c1cccc(NC(=O)C2CCN(S(=O)(=O)c3cccs3)CC2)c1 | inactive |
| CCOC(=O)N1CCC(NC(=O)c2cnn3c(C(F)(F)F)cc(-c4cccc(OC)c4)nc23)CC1 | inconclusive: 1.78 µM [activator, partial curve, poor fit] |
| Cc1ccc(CNC(=O)Nc2cccc(C)c2)cc1 | inconclusive: 12.6 µM [activator, partial curve] |
| CN(C)C(=O)CSc1nnc(C23CC4CC(CC(C4)C2)C3)o1 | inconclusive: 20 µM [activator, partial curve, poor fit] |
| Nc1[nH]nc2c1NN(c1ccc(Cl)cc1Cl)N2 | inconclusive: 15.8 µM [activator, single point] |
| NS(=O)(=O)c1ccc2nc(NC(=O)c3ccc(Br)o3)sc2c1 | active: 17.8 µM |
| c1c2c(cc3sc(N4CCOCC4)nc13)OCO2 | active: 11.2 µM |
| COc1cccc([C@@H]2Oc3ccc(OC)cc3C(=O)[C@H]2OC(=O)NS(=O)(=O)c2ccc(C)cc2)c1 | active: 11.2 µM |
| COc1ccccc1NS(=O)(=O)c1cc(NC(=O)c2ccccc2F)ccc1N1CCOCC1 | inconclusive: 20 µM [activator, partial curve, poor fit] |
| Cc1csc2nc(COc3cccc(NC(=O)c4ccccc4F)c3)cc(=O)n12 | inactive |
| CCSc1nnc(-c2cc(Br)ccc2N=Cc2c(C)[nH]n(-c3ccccc3)c2=O)c(=O)[nH]1 | inconclusive: 5.62 µM [activator, single point] |
| COc1ccc(-c2csc(-c3[nH]cnc3N)n2)cc1 | inconclusive: 8.91 µM [activator, partial curve] |
| O=C1NC(c2ccc(Br)cc2)=N/C1=C/c1ccco1 | active: 7.08 µM |
| CCN(C(=O)c1cc2c(=O)oc3ccc(C)cc3c2s1)c1ccccc1C | inactive |
| CC(C)CNC(=O)c1ccccc1NC(=O)c1ccccc1N(C)S(=O)(=O)c1ccccc1 | inactive |
| Cc1ccc(NC(=O)CN2C(=O)N/C(=C/c3cc(C)n(-c4cccc(C(=O)O)c4)c3C)C2=O)cc1 | inactive |
| Cc1cc2nc(-c3ccc(NC(=O)c4cc5ccccc5o4)cc3)oc2cc1C | inconclusive: 14.1 µM [activator, partial curve] |
| CCOC(=O)c1cnc(SCc2nc(N)nc(Nc3ccc(F)cc3)n2)nc1N | inconclusive: 0.0126 µM [activator, full curve, poor fit] |
| O=C(/C=C/Nc1ccc(F)cc1)c1ccc(Br)cc1 | active: 12.6 µM |
| CC(=O)c1sc(NC(=O)c2ccccc2F)nc1-c1ccccc1 | active: 11.2 µM |
| Cc1cc(Nc2ccc(C(=O)O)c(O)c2)n2ncnc2n1 | inactive |
| CC(C)=CC(=O)Nc1ccc(S(=O)(=O)Nc2ccccn2)cc1 | inactive |

| Structure (SMILES) | Potency |
| --- | --- |
| COc1ccc(-n2cnc3cc(NCc4ccco4)ccc32)cc1 | inconclusive: 10 µM [activator, partial curve] |
| Nc1nnc(SCc2ccccc2)n1-c1ccccc1 | inconclusive: 3.55 µM [activator, partial curve] |
| O=C(Cc1cccs1)NNC(=S)NCc1ccc(Cl)cc1 | inactive |
| O=[N+]([O-])c1ccccc1/C=C/C=N/Nc1ccc(S(=O)(=O)Nc2ccc(Cl)cc2)cc1[N+](=O)[O-] | inconclusive: 2.82 µM [activator, full curve] |
| Cc1nn(-c2ccccc2)c(C)c1/C=N/NC(=O)c1cc(C(C)(C)C)[nH]n1 | inconclusive: 12.6 µM [activator, single point] |
| CC(=O)Cc1nsc(NC(=O)c2csc3c2CCCC3)n1 | inactive |
| COC(=O)c1cccc(S(=O)(=O)N(Cc2ccco2)Cc2cc3cc(OC)ccc3[nH]c2=O)c1 | inactive |
| CC1(C)COC(c2coc3ccccc3c2=O)OC1 | inconclusive: 35.5 µM [activator, single point] |
| CCc1ccc(C(=O)c2cn(CC(=O)Nc3cccc(OC)c3)c3cc4c(cc3c2=O)OCO4)cc1 | inactive |
| CCc1c(C)sc(NC(=O)C2CCCCC2C(=O)O)c1C(N)=O (stereo not drawn) | inconclusive: 6.31 µM [activator, partial curve, poor fit] |
| Cc1ccc(Nc2c(-c3ccc(C)s3)nc3ccccn23)cc1 | inconclusive: 35.5 µM [activator, single point] |
| CCC(=O)NC(=S)Nc1cccc(NC(=O)CC)c1 | inactive |
| COc1ccc(-c2cn3cccnc3n2)cc1NS(=O)(=O)c1ccccc1 | inconclusive: 12.6 µM [activator, single point] |
| Cc1nnc2sc(-c3ccccn3)nn12 | inconclusive: 0.562 µM [activator, full curve, poor fit] |
| Cc1cccc(N2C(=O)CN(Cc3cccs3)C2=S)c1 | inconclusive: 6.31 µM [activator, single point] |
| S=C(Nc1ccccc1Cl)N1CCC(c2ccccc2)C1 (stereo not drawn) | active: 12.6 µM |
| CSc1nc(-c2ccccc2)cn1-c1ccc(NC(C)=O)cc1 | inconclusive: 12.6 µM [activator, partial curve] |
| COCC(C)NC(=O)CCS(=O)(=O)c1nc(-c2ccc(OC)cc2)cc(C(F)(F)F)n1 (stereo not drawn) | inconclusive: 11.2 µM [activator, partial curve, poor fit] |
| CCOc1ccc(NC(=O)CCSc2nc3c(c(CC)c2C#N)C(=O)CC(C)(C)C3)cc1 | inconclusive: 3.55 µM [activator, full curve, poor fit] |
| Cc1cc(C)c2c(N)c(C(=O)Nc3nccs3)sc2n1 | inconclusive: 2.82 µM [activator, partial curve, poor fit] |
| Cc1csc(NC(=O)c2cn3ccccc3n2)n1 | active: 0.631 µM |
| O=C(COC(=O)CCc1c[nH]c2ccccc12)NCc1ccc2c(c1)OCO2 | inconclusive: 20 µM [activator, single point] |
| COc1cccc([C@@H]2Oc3ccc(Br)cc3C(=O)[C@H]2OC(=O)NCc2ccco2)c1 | inactive |
